From PMC6919601, “Identification of Plasmodium dipeptidyl aminopeptidase allosteric inhibitors by high throughput screening” (PLoS ONE, 2019)
Hit rate of the full screen: of about 110,000 compounds, about 230 (0.21%) showed an effect of 50% or more. This is one part of the list. Where a SMILES comes first, the peptide text is derived from it. The star is where a group is joined. Cbz = O=C(OCc1ccccc1)*; Boc = CC(C)(C)OC(=O)*

Molecular target: DPAP1 (Plasmodium falciparum, UniProt Q8IIJ9)
Experiment: primary screen, percent inhibition; read by cleavage of a fluorogenic dipeptide substrate; higher = more effect of the substance
Design: species or system P. falciparum D10 trophozoite lysates; single well
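Also: 30 min substrate incubation versus DMSO and 10 µM JCP410 controls.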

Chain of DPAP1 (Q8IIJ9 whole entry, looked up): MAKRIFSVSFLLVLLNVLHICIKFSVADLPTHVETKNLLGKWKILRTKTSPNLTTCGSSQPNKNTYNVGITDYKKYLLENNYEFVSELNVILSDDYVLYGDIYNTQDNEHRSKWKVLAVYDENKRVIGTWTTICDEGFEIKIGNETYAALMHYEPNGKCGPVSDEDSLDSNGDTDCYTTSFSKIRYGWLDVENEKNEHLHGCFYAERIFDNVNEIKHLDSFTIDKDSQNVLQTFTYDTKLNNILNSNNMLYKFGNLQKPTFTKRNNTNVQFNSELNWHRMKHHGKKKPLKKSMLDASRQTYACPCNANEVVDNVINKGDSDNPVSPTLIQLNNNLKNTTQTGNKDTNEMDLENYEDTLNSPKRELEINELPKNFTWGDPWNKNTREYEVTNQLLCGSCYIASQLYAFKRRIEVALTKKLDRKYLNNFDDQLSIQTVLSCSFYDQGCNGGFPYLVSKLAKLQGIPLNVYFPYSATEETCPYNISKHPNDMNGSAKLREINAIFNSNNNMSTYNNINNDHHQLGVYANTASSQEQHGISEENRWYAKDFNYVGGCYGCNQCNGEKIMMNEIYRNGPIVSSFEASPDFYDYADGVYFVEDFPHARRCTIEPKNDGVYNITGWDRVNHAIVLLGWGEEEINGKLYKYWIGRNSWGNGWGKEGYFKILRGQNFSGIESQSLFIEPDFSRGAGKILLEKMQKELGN

SMILES	% Inhibition @ 10 uM
Cc1cccn2c(N)c(-c3ccc(F)cc3)nc12	6.31%
COC(=O)c1cc(-c2ccc(C(C)C)cc2)[nH]n1	-5.15%
Cn1cnc2c(cnn2-c2ccc(Cl)cc2)c1=O	-3.53%
Cc1ccc(C(=O)C2=C(O)C(=O)N(CCOCCO)C2c2ccccc2F)cc1 (centres unmarked)	3.21%
Cc1ccc2cc3cc(C(=O)NCC4CCCO4)sc3nc2c1 (centres unmarked)	-2.44%
COc1ccc(CN2CCN(C(=O)Cn3cc4c(n3)CCCC4)CC2)c(OC)c1OC	3.4%
CCN(CC)S(=O)(=O)c1cc(C(=O)NC2CCCCC2)ccc1C	-0.292%
COC(=O)c1cc(S(=O)(=O)N2CCN(c3ccc(N4CCOCC4)nn3)CC2)c[nH]1	3.12%
CCC(C(=O)O)n1nc(C)c2sc3ccccc3c2c1=O (centres unmarked)	-1.75%
O=C(CN1C(=O)CSc2ncccc21)NC1CCCc2ccccc21 (centres unmarked)	-7.93%
CCOc1ccc(Br)cc1C1C(C#N)=C(N)Oc2cc(C)oc(=O)c21 (centres unmarked)	-3.48%
COc1ccc(CC(=O)c2ccc(C(=O)Cc3ccc(OC)c(OC)c3)cc2)cc1OC	-5.85%
N#CC1=C(N)OC2=C(C(=O)c3ccccc3C2=O)C1c1cccc(Cl)c1 (centres unmarked)	5.37%
O=C1NC(=O)C2(C(=O)N1)C(c1ccc(F)cc1)NC(=S)NC2c1ccc(F)cc1 (centres unmarked)	2.83%
CCCc1cc(=O)oc2c(C)c3c(cc12)CN(Cc1ccc2c(c1)OCO2)CO3	-2.57%
Cc1cccc(Cn2nc(N)cc2C)c1	0.772%
COc1ccccc1N(CN1C(=O)c2ccc(Br)cc2C1=O)C(C)=O	0.583%
O=C(O)C1CCN(C2CC(=O)N(c3cccc(Cl)c3)C2=O)CC1 (centres unmarked)	0.83%
CCCCN1C(=O)c2ccc(C(=O)Nc3ccccc3C(=O)O)cc2C1=O	-12.8%
COc1ccc(-c2nc(CS(=O)CC(=O)NCc3ccc(C)cc3)c(C)o2)cc1 (centres unmarked)	0.689%
CCOP(=O)(CN(C)C(C)=O)OCC	-2.18%
CC(NC(=O)Cn1cccc1C(=O)c1ccccc1)C12CC3CC(CC(C3)C1)C2 (centres unmarked)	-5.89%
Cc1noc(NS(=O)(=O)c2ccc(NC(=O)c3cccc(Cl)c3)cc2)c1C	9.94%
COc1ccc(-n2nnc(-c3nc(-c4ccc5c(c4)OCO5)no3)c2N)cc1Cl	-3.58%
CCN1C(=O)N/C(=C/c2c[nH]c3ccc(Br)cc23)C1=O	-1.61%

SMILES	% Inhibition @ 10 uM
Cc1ccc(NC(=O)C(C)Oc2ccccc2C)cc1 (centres unmarked)	-0.95%
CC(C)(C)OC(=O)NC(Cc1c[nH]c2ccccc12)C(=O)NC1CCCCC1 (centres unmarked)	-3.96%
CC(CCc1ccccc1)NC(=O)c1csc2c1CCCC2 (centres unmarked)	1.93%
COCCN1C(=O)c2[nH]nc(-c3cc(C)ccc3O)c2C1c1cccc(O)c1 (centres unmarked)	3.81%
O=c1c(=O)n(Cc2ccc(Cl)cc2)ccn1CCc1ccccc1	-2.41%
Cc1oc(-c2ccc(C(=O)NCc3ccccn3)cc2)nc1CS(=O)c1ccccc1 (centres unmarked)	-0.767%
Cc1ccc(CN2C(=O)c3ccccc3NC2c2ccc3c(c2)OCO3)cc1 (centres unmarked)	0.727%
NC(=O)c1ccc(NC(=O)COc2ccc3ccccc3c2Br)cc1	-2.07%
O=C(C1CCC(CNc2c(N3CCCCC3)c(=O)c2=O)CC1)N1CCN(c2ccccn2)CC1 (centres unmarked)	4.4%
C=CCNC(=O)c1cccc(Br)c1	-0.0369%
Cc1nc2cnn(-c3ccccc3)c(=O)c2s1	-3.15%
CCOC(=O)c1c(NC(C)=O)sc2c1CCCC2=O	-1.29%
O=C(NCCCN1CCCC1=O)[C@@H](c1ccccc1)N1Cc2ccccc2C1=O	1.26%
CC(=O)c1c(Cl)nc2ccc(Br)cc2c1-c1ccccc1	7.5%
Cc1ccc(Cc2c(C)nc3c(C(=O)N4CCCCCC4)cnn3c2C)cc1	-2.14%
O=C(O)C1C2CCC(O2)C1C(=O)N1CCN(c2ccc(F)cc2)CC1 (centres unmarked)	-7.93%
COc1ccc(NC(=O)C2Oc3ccccc3OC2C)cc1 (centres unmarked)	2.53%
Cc1ccc(CN2C(=O)C3(C(C#N)=C(N)OC4=C3C(=O)CC(C)(C)C4)c3ccccc32)cc1 (centres unmarked)	-5.96%
CN1CCN(C2=NC(=O)/C(=C/c3ccc(O)cc3)S2)CC1	-4.39%
COCCCNC(=O)c1ccc(-n2c(C)cc3c2CCC(C)C3)cc1 (centres unmarked)	-0.613%
O=C(O)c1ccc(N2C(=O)C=CC2=O)cc1	-0.128%
COc1ccc(C2=NOC(C(=O)NCC3CCCO3)C2)cc1 (centres unmarked)	-0.0115%
CCOc1ccc(N(CC(=O)N(C)Cc2ccccc2)S(C)(=O)=O)cc1	-3.1%
CCOC(=O)N1CCC(/N=c2\c(O)c(O)\c2=N/CCc2ccccc2)CC1	1.93%
c1ccc(C2=Nn3c(Cn4nnc5ccccc54)nnc3SC2)cc1	1.25%

SMILES	% Inhibition @ 10 uM
CC(C)C[C@H](NC(=O)OCc1ccccc1)C(=O)N[C@H](C=O)CCCCNC(=O)OC(C)(C)C (Cbz-Leu-Lys(Boc)-aldehyde)	2.87%
Cc1nn(-c2ccccc2)c2c1C(c1ccc(O)cc1)C(C#N)=C(N)O2 (centres unmarked)	-0.902%
Cc1c(C(=O)N2CCCC2)oc2c1-c1nn(CC(=O)NCc3ccc(F)cc3)cc1CC2	2.54%
CC(C)CCNS(=O)(=O)c1ccc(-c2ccc(O)nn2)s1	4.09%
CSc1ncc(C(=O)N2CCN(Cc3ccccc3)CC2)c(-c2ccccc2)n1	5.1%
CC(Sc1nc(-c2cccnc2)ccc1C#N)C(=O)O (centres unmarked)	-3.63%
COc1cccc(C2C(C#N)=C(N)Oc3[nH]nc(C)c32)c1OCc1c(F)cccc1Cl (centres unmarked)	0.121%
COc1ccccc1Oc1cc(-n2nc(C)cc2C)ncn1	-1.55%
CSc1nc(Oc2ccc(C(C)C)cc2)cc(-n2cncn2)n1	4.81%
COc1ccc(C2=N/C(=C\c3sccc3C)C(=O)O2)cc1OC	-1.82%
CCOC(=O)c1c(NC(=O)C(F)(OC)C(F)(F)F)sc(CC)c1-c1ccccc1 (centres unmarked)	-3.04%
N#CC1(NC(=O)[C@H](Cc2c(F)cccc2F)NC(=O)c2ccc(-c3cc(C(=O)O)ccc3Cl)cc2)CCS(=O)(=O)CC1	3.1%
Cc1ccc(-c2cc(C(=O)O)c3ccccc3n2)cc1	3.05%
O=C(Cn1ncc2ccccc21)NCc1cccc(Br)c1	-1.7%
Cc1cccc(-n2c(C)cc(C(=O)C(=O)Nc3nccs3)c2C)c1	0.444%
COc1ccc(C(=O)c2sc3nc(C)cc(-c4cccs4)c3c2N)cc1OC	3.05%
CC(C)(C)C1CCc2c(sc(NC(=O)C3CC=CCC3C(=O)O)c2C#N)C1 (centres unmarked)	5.59%
COc1ccc(CC(=O)N2N=C(C(F)F)CC2(O)C(F)F)cc1 (centres unmarked)	1.34%
CCOC(=O)C1=C(c2ccccc2)N=C(S)NC1c1cccc(OC)c1OC (centres unmarked)	-0.142%
COc1cc2c(C(=O)N3CCC(C)CC3)cn(C)c(=O)c2cc1OC	-4.86%
CCN1CCCC1CNC(=O)CSCc1nc(-c2ccc(SC)cc2)oc1C (centres unmarked)	2.37%
CCOc1ccc(C(=O)Nc2nc(C)c(C(=O)OC)s2)cc1Br	15.8%
Cc1cc(-c2ccccc2)ccc1C(=O)N[C@@H](CC(C)C)C(=O)NCC#N	-1.41%
CCC(C)Nc1nc2c(cc1C#N)COC(C)(C)C2 (centres unmarked)	-1.51%
CCOc1ccccc1NC(=O)C1=C(C)NC(=O)NC1c1ccc(C(C)C)cc1 (centres unmarked)	3.13%

SMILES	% Inhibition @ 10 uM
Cc1cc(C(=O)N2CCN(c3ccc(OCc4ccccc4)cc3)CC2)c(C)o1	7.68%
CC(C)(C)CC(C)(C)c1ccc(OCC(=O)O)cc1	-0.834%
O=C(O)c1cccc(NC(=O)C23CC4CC(CC(C4)C2)C3)c1	-4.61%
CCCn1c(=O)c(C(=O)Nc2ccccc2C)c(O)c2ccccc21	-0.034%
Cc1ccc(S(=O)(=O)Nc2ccc(NS(=O)(=O)c3ccc(F)cc3)cc2)cc1	-3.95%
CC1CCCC(NC(=O)Cn2cccc2C(=O)c2ccccc2)C1C (centres unmarked)	-0.522%
Cc1nn(CC(=O)NCC2CCCO2)c(=O)c2ccccc12 (centres unmarked)	-3.96%
CC1=C(C(=O)OCc2ccccc2)C(c2ccc(Cl)cc2)C2=C(O)CC(C)(C)CC2=N1 (centres unmarked)	-0.294%
Cc1nn(C)c(C)c1C1C(C#N)=C(N)OC2=C1C(=O)CCC2 (centres unmarked)	-0.105%
COc1cc(CNCc2c(C(=O)O)c(C)n(Cc3ccc(F)cc3Cl)c2C)cc(OC)c1OC	27.5%
CC(C)COC(=O)CC(CN)c1ccccc1 (centres unmarked)	1.13%
Cc1ccc(CNC(=O)c2c(-c3ccccc3)noc2C)cc1	-5.01%
CC(CN1CCC(O)CC1)c1ccccc1 (centres unmarked)	-0.603%
Nc1cc(C(=O)c2ccc(C(=O)O)c(N)c2)ccc1C(=O)O	22.9%
COc1ccccc1CNC(=O)c1cc2c(s1)CSC2	-2.14%
CCOC(=O)C1=CN(C)C=C(C(=O)OCC)C1c1cccc(OC)c1OC	-1.48%
COc1cccc(CNc2nc3nc(C)c(Cl)c(C)n3n2)c1	-0.671%
COc1cccc(-c2nc(CS(=O)(=O)CC(=O)N3CCN(C)CC3)c(C)o2)c1	-3.7%
COc1cc(OC)cc(C(=O)N[C@@H](CC(C)C)C(=O)NCC#N)c1	-3.04%
O=CN1CCN(C2CCCCCC2)CC1	-1.81%
Cc1ccsc1CCNS(=O)(=O)c1csc(C(N)=O)c1	0.581%
CCN(CC)S(=O)(=O)c1ccc(NC(=O)COc2ccc(Br)c(C)c2)cc1	0.658%
Cc1cccc(C(=O)Nc2nc3nc(C)c(Cl)c(C)n3n2)c1	5.2%
